# Laboratory results from the antibiotic and cytotoxicity screens of Wong et al. (2023).
# Some of the results follow.
# Tests used:
# HSkMC = human skeletal muscle cells; assay: cytotoxicity call (relative viability < 0.9); conditions: 10 µM
# HepG2 = assay: cytotoxicity call (relative viability < 0.9); conditions: 10 µM
# S. aureus RN4220 = assay: growth inhibition call (relative growth <= 0.2); conditions: 50 µM
Structure (SMILES),cytotoxicity call (HSkMC),cytotoxicity call (HepG2),growth inhibition call (S. aureus RN4220)
COc1cccc(S(=O)(=O)Nc2ccc3c(c2)C(=O)N(C)C[C@H](OC)[C@H](C)CN(C(=O)Cc2cccnc2)[C@H](C)CO3)c1,inactive,inactive,inactive
C[C@@H]1CN([C@H](C)CO)C(=O)c2cccc(NC(=O)c3cnccn3)c2O[C@@H]1CN(C)Cc1ccc2c(c1)OCO2,inactive,inactive,inactive
Cc1noc(C)c1S(=O)(=O)Nc1ccc2c(c1)C(=O)N([C@@H](C)CO)C[C@H](C)[C@@H](CN(C)CC1CC1)O2,inactive,inactive,inactive
C[C@H](CO)N1C[C@H](C)[C@H](CN(C)C(=O)Nc2cccc(F)c2)Oc2cc(C#CC3(O)CCCC3)ccc2S1(=O)=O,inactive,inactive,inactive
C[C@@H]1CN([C@@H](C)CO)S(=O)(=O)c2ccc(C#CC3(O)CCCC3)cc2O[C@H]1CN(C)C(=O)Cc1ccccc1,inactive,inactive,inactive
C[C@H](CO)N1C[C@H](C)[C@H](CN(C)S(=O)(=O)c2cn(C)cn2)Oc2ncc(C3=CCCC3)cc2C1=O,inactive,inactive,inactive
CN(C)CCCCNC(=O)[C@H]1C[C@H]2C(=O)NCC(=O)N2[C@H]1c1cccc(OCCO)c1,inactive,inactive,inactive
C[C@H]1CN([C@@H](C)CO)S(=O)(=O)c2ccc(C#CCN(C)C)cc2O[C@@H]1CN(C)Cc1ccc(F)cc1,inactive,inactive,inactive
COc1ccc(CN(C)C[C@H]2OCCCC[C@H](C)Oc3ccc(NC(=O)NC4CCCCC4)cc3C(=O)N([C@H](C)CO)C[C@H]2C)cc1,inactive,inactive,inactive
Cc1ccc(S(=O)(=O)N(C)C[C@@H]2Oc3cc(Br)ccc3S(=O)(=O)N([C@@H](C)CO)C[C@@H]2C)cc1,inactive,inactive,inactive
C[C@H](CO)N1C[C@H](C)[C@H](CN(C)C(=O)c2ccccc2)OCCCC[C@H](C)Oc2ccc(NC(=O)C3CCCCC3)cc2C1=O,inactive,inactive,inactive
O=C([C@@H]1[C@@H](CO)[C@@H]2Cn3c(cccc3=O)[C@@H]2N1CC1CCCC1)N1CCOCC1,inactive,inactive,inactive
COc1ccc(C(=O)Nc2ccc(CN3C(=O)[C@]4(O[C@H](CC(=O)N5CCC[C@H]5CO)[C@@H]([Si](C)(C)c5ccc(OC)cc5)[C@@H]4C)c4ccccc43)cc2)cc1,inactive,inactive,inactive
C[C@H]1CCCCO[C@H](CN(C)Cc2ccc(C(F)(F)F)cc2)[C@@H](C)CN([C@@H](C)CO)C(=O)c2cc(NC(=O)Nc3ccc(C(F)(F)F)cc3)ccc2O1,inactive,active,inactive
O=C(O)C(O)C(O)(Cc1ccc(O)cc1)C(=O)O (configuration not stated),inactive,inactive,inactive
COCC(=O)N1C[C@@H](C)[C@@H](OC)CN(C)C(=O)c2ccc(NC(=O)Nc3ccccc3)cc2OC[C@@H]1C,inactive,inactive,inactive
O=C(CCCCCCC(=O)Nc1ccc([C@H]2O[C@@H](CSc3ccccc3)C[C@H](c3ccccc3)O2)cc1)NO,inactive,inactive,inactive
COc1ccc(NC(=O)N(C)C[C@@H]2OCCCC[C@H](C)Oc3ccc(NS(=O)(=O)c4ccc(C)cc4)cc3C(=O)N([C@H](C)CO)C[C@@H]2C)cc1,inactive,inactive,inactive
C=CCOC(=O)[C@@H]1[C@H]2C(=O)O[C@H](c3ccccc3)[C@H](c3ccccc3)N2[C@H](c2ccc(OCCOC(=O)[C@H]3C[C@H]4C(=O)N[C@@H](CCCC[N+](C)(C)C)C(=O)N4[C@H]3c3cccc(OCCO)c3)cc2)[C@@]12C(=O)Nc1ccccc12,inactive,inactive,inactive
C[C@H](CO)N1C[C@H](C)[C@@H](CN(C)CC2CC2)Oc2ccc(NS(=O)(=O)c3ccccc3)cc2CC1=O,inactive,inactive,inactive
COc1cccc(S(=O)(=O)N[C@@H]2CC[C@@H](CCn3cc(-c4ccccc4OC)nn3)O[C@@H]2CO)c1,inactive,inactive,inactive
O=C(O)CCCCCCCC(=O)O,inactive,inactive,inactive
C[C@@H]1CN([C@@H](C)CO)C(=O)c2cc(NC(=O)NC3CCCCC3)ccc2O[C@H]1CN(C)C(=O)Nc1cccc2ccccc12,inactive,inactive,inactive
COc1cccc(S(=O)(=O)Nc2ccc3c(c2)[C@H]2C[C@H](CC(=O)NCCc4ccccc4)O[C@@H](CO)[C@H]2O3)c1,inactive,inactive,inactive
